50 compounds from paper PMC6919601, “Identification of Plasmodium dipeptidyl aminopeptidase allosteric inhibitors by high throughput screening” (PLoS ONE, 2019) can be followed below.

Screen size: about 110,000 compounds; about 230 (0.21%) showed an effect of 50% or more. The list shows a part of the results.
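Note: 30 min substrate incubation versus DMSO and 10 µM JCP410 controls.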

For this experiment, the target named is DPAP1 (Plasmodium falciparum, UniProt Q8IIJ9). Kind of experiment: primary screen, percent inhibition; read by cleavage of a fluorogenic dipeptide substrate; higher = more effect of the substance. Also noted: species or system P. falciparum D10 trophozoite lysates; single well.
Chain of DPAP1 (Q8IIJ9 whole entry, looked up): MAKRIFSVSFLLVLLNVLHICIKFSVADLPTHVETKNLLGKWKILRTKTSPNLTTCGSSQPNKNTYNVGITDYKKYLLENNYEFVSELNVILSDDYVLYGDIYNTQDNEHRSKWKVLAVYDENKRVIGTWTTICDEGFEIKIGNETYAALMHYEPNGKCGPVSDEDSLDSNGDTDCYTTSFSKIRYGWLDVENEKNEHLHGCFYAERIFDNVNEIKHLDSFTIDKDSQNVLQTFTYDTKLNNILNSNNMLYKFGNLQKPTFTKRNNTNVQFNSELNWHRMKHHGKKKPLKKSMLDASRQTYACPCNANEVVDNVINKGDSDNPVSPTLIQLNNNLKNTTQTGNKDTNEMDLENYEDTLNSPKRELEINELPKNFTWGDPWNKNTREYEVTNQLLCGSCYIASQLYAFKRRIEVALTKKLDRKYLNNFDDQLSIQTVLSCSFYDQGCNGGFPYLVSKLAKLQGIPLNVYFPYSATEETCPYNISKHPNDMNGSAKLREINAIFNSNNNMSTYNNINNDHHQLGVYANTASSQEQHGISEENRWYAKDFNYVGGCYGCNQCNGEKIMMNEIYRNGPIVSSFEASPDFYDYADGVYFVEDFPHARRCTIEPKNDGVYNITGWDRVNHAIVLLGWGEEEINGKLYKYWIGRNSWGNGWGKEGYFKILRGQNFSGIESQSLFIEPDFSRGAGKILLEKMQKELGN
On to `CSc1nn(-c2cc(Oc3ccccc3C)ncn2)c(N)c1C(N)=O`, for which the “% Inhibition @ 10 uM” value is -3.37%.
Turning to `O=C(CC(c1ccccc1)c1ccccc1O)NCc1ccccc1Cl` (centres unmarked), the “% Inhibition @ 10 uM” value is given as -0.0626%.
`Cc1ccc(S(=O)(=O)N(C)c2ccc(C(=O)NC3CC3)cc2)cc1`: the “% Inhibition @ 10 uM” value is listed as -6.58%.
Next, `CC1CN(C)C(C)c2c1oc1ccc([N+](=O)[O-])cc21` (centres unmarked): 1.63%; `Cc1ccc(S(=O)(=O)N2CCN(C)CC2)c2nsnc12`: 5.3%.
Then `COc1ccc(C2c3c(n(C)c(=O)n(C)c3=O)N=C3c4ccccc4C(=O)C32)cc1OC` (centres unmarked), with -4.12%; and `O=C1C(/C=N/Cc2cccs2)C(C(F)(F)F)=NN1c1nc2ccccc2s1` (centres unmarked), with -2.39%.
Then `CC(C)(C)C(=O)Nc1cc(C(=O)O)cc(C(=O)O)c1`, with -2.63%.
As for `Cc1onc(-c2ccccc2Cl)c1C(=O)N1CCN(C)CC1`, the “% Inhibition @ 10 uM” value is -3.91%.
For the compound `CSc1ccc(/C=C2\N=C(c3ccc(C)c(C)c3)OC2=O)cc1`, the “% Inhibition @ 10 uM” value is on record as 0.997%.
Next, `Cn1ncc(Br)c1C(=O)Nc1sc2c(c1C(N)=O)CCC(C(C)(C)C)C2` (centres unmarked): 1.02%; `Cn1c(SCc2ccc(F)cc2)nc2ccc(C(=O)N3CCN(c4ncccn4)CC3)cc21`: -0.495%; `CCCCCc1ccc(-c2ccc(O)nn2)cc1`: 7.55%.
Then `CCc1noc(C)c1C(=O)Nc1cc(C(F)(F)F)ccc1F`, with 1.59%.
Then `CCCNC(=O)CN(c1cc(C)ccc1C)S(=O)(=O)c1ccccc1`, with 0.87%; and `O=C(Nc1c(-c2ccccc2)nc2ccccn12)c1ccccc1`, with 3.31%; and `O=C(CC1(O)C(=O)Nc2c(Cl)ccc(Cl)c21)c1ccc(Cl)cc1` (centres unmarked), with 1.86%.
With `COc1ccc(C2C(C#N)=C(N)Oc3[nH]nc(C)c32)cc1COc1ccc(C)cc1` (centres unmarked), the “% Inhibition @ 10 uM” value was determined as 5.9%.
Then `COc1cccc(C2=NS(=O)(=O)N(C)C(C(=O)N3CCN(C)CC3)=C2)c1`, with -1.06%.
For `CN(c1cccc(NS(=O)(=O)c2ccc(Br)cc2)c1)S(C)(=O)=O`, the “% Inhibition @ 10 uM” value was -4.7%.
Next, `CC(=O)Nc1cc(NC(C)=O)[nH]n1`: 0.66%; `CC1(C)O[C@H]2[C@@H](O1)[C@@H](C(=O)Nc1nccs1)O[C@@H]1OC(C)(C)O[C@@H]12`: 1.64%; `CC(C)N(Cc1ccccc1)S(=O)(=O)c1ccc2nc(O)ccc2c1`: 0.244%.
Then `CCC(CC)COC(=O)C1=C(C)NC(=O)CC1c1ccccc1C` (centres unmarked), with 3.5%; and `COc1ccc(CC(=O)Nc2sc3c(c2C(N)=O)CCC(C)C3)cc1OC` (centres unmarked), with 3.67%; and `COc1cc(C(=O)N2N=C(C3CC3)CC2(O)C(F)(F)F)cc(OC)c1OC` (centres unmarked), with -0.63%.
Next, `O=C1OC(c2ccco2)=N/C1=C\c1ccc(Cl)cc1Cl`: -6.6%.
On to `O=CN1CCN(Cc2ccccc2Br)CC1`, for which the “% Inhibition @ 10 uM” value was -5.43%.
As to `O=C(Nc1ccc(N2CCN(C(=O)c3cccs3)CC2)cc1)c1cccc(Cl)c1`, the “% Inhibition @ 10 uM” value is listed as -2.29%.
Then `O=C(c1ccncc1)N(Cc1ccccc1)Cc1ccccc1`, with -1.1%; and `O=C(Nc1ccccc1C(=O)N1CCOCC1)c1cccc(F)c1`, with 2.48%.
On to `Clc1ccc(CNC2CCN(CCc3ccccc3)CC2)cc1Cl`, for which the “% Inhibition @ 10 uM” value was -1.5%.
Next, `Cc1cccc(-n2cc(-c3ccccc3)nc2SCC(=O)Nc2nccs2)c1`: 43.6%; `Oc1ccc(-c2nc(-c3ccc(O)cc3)c(-c3ccccc3)[nH]2)cc1`: 3.66%; `Nc1ccccc1-c1nc2ccccc2[nH]1`: -1.69%.
Then `CCC(C)NC(=O)C1=CC(c2cccc(OC)c2)=NS(=O)(=O)N1C` (centres unmarked), with 2.32%; and `CC1=NC(C)(C)C(C)c2c1ccc1ccccc21` (centres unmarked), with 2.01%; and `CC1(C)CC(=O)C2=C(C1)OC(N)=C(C#N)C2c1cc(CN2CCOCC2)cs1` (centres unmarked), with 0.776%.
Next, `CCCCN(CC)CCNC(=O)c1cn(C2CCCC2)c(=O)c2c1c1ccccc1n2C`: 1.85%; `COc1cc2c(N3C(=O)CCC3=O)c3c(=O)oc(C)cn3c2cc1OC`: 1.68%.
For the compound `COc1ccc(C(=O)NCC2COc3ccccc3O2)c(OC)c1OC` (centres unmarked), the “% Inhibition @ 10 uM” value was -8.7%.
Then `Cc1nn(Cc2cccc(C(=O)NCC(C)C)c2)c(C)c1Br`, with 1.71%; and `CCC(Oc1ccccc1)C(=O)Nc1ccc(S(N)(=O)=O)cc1` (centres unmarked), with 6.15%; and `COc1cc(/C=C(\C#N)c2nn(CCO)c(N)c2C#N)ccc1OCc1ccc(C)cc1`, with 9.09%.
Next, `CC(C)CCNC(=O)[C@@H]1CCCN1C#N`: -5.64%; `CCOC(=O)c1c(NC(=O)C2CC(=O)OC23CCCCC3)sc2c1CCCC2` (centres unmarked): -0.178%.
Regarding `Cc1cccc(C(C2=C(O)CC(C)(C)CC2=O)C2C(=O)CC(C)(C)CC2=O)c1` (centres unmarked), the “% Inhibition @ 10 uM” value is 4.16%.
As for `Cc1cccc(C)c1NS(=O)(=O)c1cccc2cccnc12`, the “% Inhibition @ 10 uM” value is 1.84%.
Next, `COC(=O)c1cc(-c2ccc(Br)cc2)c2c(=O)[nH]c(=O)n(C)c2n1`: 5.81%.
Next, `CC(=O)N1CCN(Cc2ccc(N(C)C)cc2)CC1`: -2.95%.
